PubChem BioAssay (NCI)
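These data come from cells grown in 96-well plates and exposed to compound for 48 hours at five concentrations. The concentration for 50% growth inhibition is given as GI50.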 For part of its entries the source gives two or more results. This is not the full list of results. The source may hold further records. Records of one sample usually come from different ranges of test concentrations, which the source does not state; some values may only mark the edge of a range. Marks in square brackets tell the records apart. Letters count within one entry.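 TGI marks complete inhibition of growth.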

Experiments:
Assay in all cases: NCI tumour cell line growth inhibition, 48 h
HL-60(TB) leukemia = tested on: HL-60(TB) leukemia
SK-OV-3 ovarian = tested on: SK-OV-3 ovarian
CCRF-CEM leukemia = tested on: CCRF-CEM leukemia
NCI-H23 lung = tested on: NCI-H23 lung
SN12C renal = tested on: SN12C renal
K-562 leukemia = tested on: K-562 leukemia
MDA-MB-231 breast = tested on: MDA-MB-231 breast
HCT-15 colon = tested on: HCT-15 colon
RPMI-8226 leukemia = tested on: RPMI-8226 leukemia
UACC-62 melanoma = tested on: UACC-62 melanoma
COLO 205 colon = tested on: COLO 205 colon
SR leukemia = tested on: SR leukemia
HCT-116 colon = tested on: HCT-116 colon
MOLT-4 leukemia = tested on: MOLT-4 leukemia
A498 renal = tested on: A498 renal
OVCAR-3 ovarian = tested on: OVCAR-3 ovarian
SK-MEL-5 melanoma = tested on: SK-MEL-5 melanoma
NCI/ADR-RES ovarian = tested on: NCI/ADR-RES ovarian
DU-145 prostate = tested on: DU-145 prostate
M14 melanoma = tested on: M14 melanoma
SNB-19 CNS = tested on: SNB-19 CNS
UACC-257 melanoma = tested on: UACC-257 melanoma
SF-295 CNS = tested on: SF-295 CNS
RXF 393 renal = tested on: RXF 393 renal
TK-10 renal = tested on: TK-10 renal
SF-539 CNS = tested on: SF-539 CNS
EKVX NSCLC = tested on: EKVX NSCLC
SK-MEL-28 melanoma = tested on: SK-MEL-28 melanoma
DLD-1 colon = tested on: DLD-1 colon
XF 498 CNS = tested on: XF 498 CNS
DMS 273 small cell lung = tested on: DMS 273 small cell lung
SK-MEL-2 melanoma = tested on: SK-MEL-2 melanoma
OVCAR-5 ovarian = tested on: OVCAR-5 ovarian
SNB-78 CNS = tested on: SNB-78 CNS
CAKI-1 renal = tested on: CAKI-1 renal
KM12 colon = tested on: KM12 colon
NCI-H522 lung = tested on: NCI-H522 lung
MALME-3M melanoma = tested on: MALME-3M melanoma
HT29 colon = tested on: HT29 colon
NCI-H460 lung = tested on: NCI-H460 lung
786-0 renal = tested on: 786-0 renal
M19-MEL melanoma = tested on: M19-MEL melanoma
SF-268 CNS = tested on: SF-268 CNS
OVCAR-4 ovarian = tested on: OVCAR-4 ovarian
HOP-62 NSCLC = tested on: HOP-62 NSCLC
HOP-92 NSCLC = tested on: HOP-92 NSCLC
NCI-H226 lung = tested on: NCI-H226 lung
HCC-2998 colon = tested on: HCC-2998 colon
SNB-75 CNS = tested on: SNB-75 CNS
U251 CNS = tested on: U251 CNS
P388 leukemia = tested on: P388 leukemia
KM20L2 colon = tested on: KM20L2 colon
MCF7 breast = tested on: MCF7 breast

Cc1ccnc2[nH]c(-c3ccccc3)cc(=O)c12
TGI (HL-60(TB) leukemia): 5.68 nM and > 100 µM | TGI (SK-OV-3 ovarian): 133 nM and > 100 µM | TGI (CCRF-CEM leukemia): 86.2 nM and > 100 µM | TGI (NCI-H23 lung): 152 nM and > 100 µM | TGI (SN12C renal): 2.04 µM and > 100 µM | TGI (K-562 leukemia): 93.7 nM and > 100 µM | TGI (MDA-MB-231 breast): 9.31 µM and > 100 µM | TGI (HCT-15 colon): 182 nM and 3.67 µM | TGI (RPMI-8226 leukemia): 4.01 µM and > 100 µM | TGI (UACC-62 melanoma): 56.4 nM and > 100 µM | TGI (COLO 205 colon): 20.1 nM and 1.64 µM | TGI (SR leukemia): 366 nM and > 100 µM

COc1ccc(/C=C\c2cc(OC)c(OC)c(OC)c2)cc1OC(=O)CCC(=O)O
TGI (HCT-116 colon): < 0.1 nM and > 100 µM | TGI (MOLT-4 leukemia): < 0.1 nM and > 100 µM | TGI (A498 renal): < 0.1 nM and 86.2 µM | TGI (OVCAR-3 ovarian): < 0.1 nM and > 100 µM | TGI (SK-MEL-5 melanoma): < 0.1 nM and 20.4 µM | TGI (NCI/ADR-RES ovarian): < 0.1 nM and 23.9 µM | TGI (K-562 leukemia): < 0.1 nM and > 100 µM | TGI (MDA-MB-231 breast): < 0.1 nM and > 100 µM | TGI (DU-145 prostate): < 0.1 nM and > 100 µM | TGI (UACC-62 melanoma): < 0.1 nM and > 100 µM | TGI (M14 melanoma): < 0.1 nM and > 100 µM

CCN(CCCl)CCCNc1c2ccccc2nc2ccc(OC)cc12
TGI (SNB-19 CNS): 2.27 µM and 1.58 mM | TGI (UACC-257 melanoma): 2.64 µM and 1.32 mM | TGI (SF-295 CNS): 1.74 µM and 1.72 mM | TGI (RXF 393 renal): 1.16 µM and 1.2 mM | TGI (TK-10 renal): 4.54 µM and 2.8 mM | TGI (SF-539 CNS): 1.63 µM and 1.92 mM | TGI (HL-60(TB) leukemia): 273 nM and 1.26 mM | TGI (EKVX NSCLC): 3.18 µM and 1.66 mM | TGI (SK-OV-3 ovarian): 2.31 µM and 1.68 mM | TGI (CCRF-CEM leukemia): 869 nM and 1.07 mM | TGI (SK-MEL-28 melanoma): 2.08 µM and 1.68 mM | TGI (DLD-1 colon): 1.59 µM and 1.36 mM | TGI (XF 498 CNS): 838 nM and 888 µM | TGI (NCI-H23 lung): 1.04 µM and 1.75 mM | TGI (DMS 273 small cell lung): 1.17 µM and 1.24 mM | TGI (SK-MEL-2 melanoma): 2.19 µM and 1.25 mM | TGI (MOLT-4 leukemia): 259 nM and 500 µM | TGI (OVCAR-5 ovarian): 1.66 µM and 1.25 mM | TGI (SNB-78 CNS): 3.06 µM and 5.66 mM | TGI (CAKI-1 renal): 1.49 µM and 844 µM | TGI (KM12 colon): 1.47 µM and 1.52 mM | TGI (NCI-H522 lung): 1.61 µM and 712 µM | TGI (SN12C renal): 1.61 µM and 817 µM | TGI (OVCAR-3 ovarian): 2.5 µM and 526 µM | TGI (MALME-3M melanoma): 1.84 µM and 1.46 mM | TGI (HT29 colon): 1.63 µM and 1.34 mM | TGI (NCI-H460 lung): 1.62 µM and 803 µM | TGI (SK-MEL-5 melanoma): 1.74 µM and 1.56 mM | TGI (K-562 leukemia): 10.5 µM and 1.01 mM | TGI (786-0 renal): 1.52 µM and 735 µM | TGI (M19-MEL melanoma): 1.42 µM and 1.12 mM | TGI (SF-268 CNS): 1.94 µM and 2.09 mM | TGI (OVCAR-4 ovarian): 2.59 µM and 1.36 mM | TGI (HOP-62 NSCLC): 2.81 µM and 1.12 mM | TGI (HOP-92 NSCLC): 711 nM and 993 µM | TGI (NCI-H226 lung): 723 nM and 2.41 mM | TGI (UACC-62 melanoma): 1.39 µM and 815 µM | TGI (M14 melanoma): 1.99 µM and 769 µM | TGI (HCC-2998 colon): 1.81 µM and 953 µM | TGI (SNB-75 CNS): 2.24 µM and 1.49 mM | TGI (U251 CNS): 1.53 µM and 2.41 mM

NC(=O)C#CC(N)=O
TGI (CCRF-CEM leukemia): 13.9 µM [sample A] and 5.15 µM, 57.9 µM [sample B] | GI50 (P388 leukemia): 1.68 µM and 87.5 nM | TGI (P388 leukemia): 4.74 µM and 406 nM | GI50 (SF-268 CNS): 15.4 µM and > 875 µM | TGI (SF-268 CNS): > 100 µM [sample A] and 31.6 µM, > 875 µM [sample B] | GI50 (KM20L2 colon): > 100 µM [sample A, mean of 2 tests] and 44.9 µM [sample B, 1 test] and 2.08 µM [sample B, mean of 2 tests] | TGI (KM20L2 colon): > 100 µM [sample A, mean of 2 tests] and 165 µM [sample B, 1 test] and 3.94 µM [sample B, mean of 2 tests]

COc1cc2c[n+](C)c3c4ccccc4ccc3c2cc1OC (tested in a mixture with another compound)
TGI (K-562 leukemia): 7.9 µM and > 100 µM | TGI (RPMI-8226 leukemia): 5.16 µM and > 76.1 µM | TGI (MCF7 breast): 9.09 µM and > 100 µM | TGI (SR leukemia): 2.91 µM and 74.2 µM
